From the supplement of paper PMC8512760 come the findings set out here.

This is one part of the list. Repeats are few or missing, and single values can be far off.

Test in all cases: cell viability relative to vehicle (% of vehicle); basal-like triple-negative breast cancer lines; higher = less cytotoxic
Common to all, as to conditions: 10 µM; 72 h

Experiment [1] has as its system HCC-1143.
Experiment [2] deals with MDA-468.
Experiment [3] concerns SUM-149.
Experiment [4] deals with HCC-1187.
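Also: stably firefly luciferase-GFP labeled cells in 96-well plates, viability read as luciferase photon flux after d-luciferin addition, treated wells normalized to vehicle wells, single-dose high-throughput screen.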

In the case of `CS(=O)(=O)O.Cc1ccc(NC(=O)c2ccc(CN3CCN(C)CC3)cc2)cc1Nc1nccc(-c2cccnc2)n1` [Imatinib Mesylate (STI571)], the values for the cell viability in experiment [1], in experiment [2] and in experiment [3] were 99.4, 99.6 and 108, respectively.

Consider `CN(C)CCN1C(=O)c2cccc3cc(N)cc(c23)C1=O` [Amonafide], for which the cell viability in experiment [1] stood at 112; in experiment [4], 46.6; in experiment [2] it was 66.5; in experiment [3], 70.7.

`Cc1ccc(NC(=O)c2ccc(CN3CCN(C)CC3)cc2)cc1Nc1nccc(-c2cccnc2)n1` [Imatinib (STI571)]: the figures for the cell viability in experiment [1], in experiment [2] and in experiment [3] were 83.3, 127 and 104, respectively.

As to `Cc1noc(NS(=O)(=O)c2ccc(N)cc2)c1C` [Sulfisoxazole], the cell viability in experiment [1] amounted to 99.3; in experiment [4], 80.1; in experiment [2], 86.2; in experiment [3], 106.

As to `CC1(C)CCC(C)(C)c2cc(NC(=O)c3ccc(C(=O)O)cc3)ccc21` [Tamibarotene], the cell viability worked out at 90.9 in experiment [1], 123 in experiment [4], 93.9 in experiment [2] and 122 in experiment [3].

Take `Cl.Nc1ccc(N=Nc2ccccc2)c(N)n1` [Phenazopyridine HCl]: the cell viability in experiment [4] was 96.5.

As for `CNC(=O)c1cc(Oc2ccc(NC(=O)Nc3ccc(Cl)c(C(F)(F)F)c3)c(F)c2)ccn1` [Regorafenib], the cell viability in experiment [1] stood at 103; in experiment [4], 104; in experiment [2] it was 103; in experiment [3], 100.

With `Cc1c(OCC(F)(F)F)ccnc1CS(=O)c1nc2ccccc2[n-]1.[Na+]` (stereo not drawn) [Lansoprazole sodium], the cell viability in experiment [1] was 188; in experiment [2] it was 171; in experiment [3] it was 142.

For the molecule `CC(=O)Oc1ccccc1C(=O)Nc1ncc([N+](=O)[O-])s1` [Nitazoxanide], the cell viability amounted to 187 in experiment [1], 159 in experiment [2] and 146 in experiment [3].

For the molecule `NC(=O)c1ncn(C2OC(CO)C(O)C2O)n1` (stereo not drawn) [Ribavirin], the cell viability in experiment [1] came to 107; in experiment [4], 104; in experiment [2], 107; in experiment [3], 134.

As to `CC(C)(O/N=C(\C(=O)N[C@@H]1C(=O)N2C(C(=O)[O-])=C(C[n+]3ccccc3)CS[C@H]12)c1csc(N)n1)C(=O)O` [Ceftazidime], the cell viability in experiment [1] is 98.7; in experiment [4], 94.4; in experiment [2] it was 109; in experiment [3] it was 122.

Take `CC(=O)O.CC(O)C(CO)NC(=O)C1CSSCC(NC(=O)C(N)Cc2ccccc2)C(=O)NC(Cc2ccccc2)C(=O)NC(Cc2c[nH]c3ccccc23)C(=O)NC(CCCCN)C(=O)NC(C(C)O)C(=O)N1` (stereo not drawn) [Octreotide acetate]: the cell viability in experiment [1] was 72; in experiment [4], 92.3; in experiment [2], 111; in experiment [3], 106.

Take `CN(C)CCC=C1c2ccccc2Sc2ccc(Cl)cc21` [Chlorprothixene]: the cell viability in experiment [1] was 81.3; in experiment [4] it was 111; in experiment [2] it was 112; in experiment [3], 98.

On to `CN1CCN(CCCN2c3ccccc3Sc3ccc(C(F)(F)F)cc32)CC1.Cl.Cl` [Trifluoperazine 2HCl], for which the cell viability in experiment [1] is 81.2; in experiment [4], 85.8; in experiment [2] it was 102; in experiment [3], 69.

Consider `Cc1oncc1C(=O)Nc1ccc(C(F)(F)F)cc1` [Leflunomide], for which the results for the cell viability in experiment [4] and in experiment [2] were 136 and 159, respectively.

`NCC1OC(OC2C(N)CC(N)C(OC3OC(CO)C(O)C(N)C3O)C2O)C(O)C(O)C1O.O=S(=O)(O)O` (stereo not drawn) [Kanamycin Sulfate]: the cell viability in experiment [1] turned out to be 92.8; in experiment [4], 102; in experiment [2], 86.8; in experiment [3], 79.

Regarding `Nc1nc2ccc(OC(F)(F)F)cc2s1` [Riluzole], the cell viability in experiment [1] is 133; in experiment [4] it was 185; in experiment [3], 184.

`N.N.O=C([O-])C1(C(=O)[O-])CCC1.[Pt+2]` [Carboplatin]: the cell viability in experiment [1] was 72.9; in experiment [4], 76.9; in experiment [2], 83.2; in experiment [3], 102.

Consider `CC1(C)SC2C(NC(=O)C(N)c3ccc(O)cc3)C(=O)N2C1C(=O)O` (stereo not drawn) [Amoxicillin], for which the cell viability was found to be 115 in experiment [1], 105 in experiment [4], 106 in experiment [2] and 110 in experiment [3].

Take `CCN(CC)CCNC(=O)c1c(C)[nH]c(C=C2C(=O)Nc3ccc(F)cc32)c1C.O=C(O)CC(O)C(=O)O` [Sunitinib malate]: the cell viability in experiment [1] amounted to 108; in experiment [4], 71.8; in experiment [2], 21.4; in experiment [3], 24.

For the molecule `CC(NC(=O)C(O)C(C)C)C(=O)NC1C(=O)N(C)CCc2ccccc21` (stereo not drawn), the cell viability worked out at 83.3 in experiment [1], 87.7 in experiment [4], 88.6 in experiment [2] and 130 in experiment [3].

On to `O=S(=O)(O)NC1CCCCC1` [Cyclamic acid], for which the cell viability stood at 68.3 in experiment [1], 71.9 in experiment [4], 94.8 in experiment [2] and 120 in experiment [3].

As to `CC(O)=C(C#N)C(=O)Nc1ccc(C(F)(F)F)cc1` [Teriflunomide], the cell viability in experiment [4] amounted to 145.

Regarding `CC(CN1CC(=O)NC(=O)C1)N1CC(=O)NC(=O)C1` (stereo not drawn) [Dexrazoxane], the cell viability in experiment [1] worked out at 73; in experiment [4], 87; in experiment [2] it was 115; in experiment [3] it was 111.

Take `Cc1c(OCC(F)(F)F)ccnc1CS(=O)c1nc2ccccc2[nH]1` (stereo not drawn) [Lansoprazole]: the cell viability stood at 180 in experiment [4], 169 in experiment [2] and 157 in experiment [3].

`CN(C)CCCN1c2ccccc2CCc2ccc(Cl)cc21.Cl` [Clomipramine HCl]: the cell viability came out at 68.7 in experiment [1], 100 in experiment [4], 97.5 in experiment [2] and 81.5 in experiment [3].

Regarding `CC(C(=O)O)c1ccc2c(c1)[nH]c1ccc(Cl)cc12` (stereo not drawn) [Carprofen], the cell viability in experiment [1] was found to be 108; in experiment [4], 123; in experiment [2], 126; in experiment [3] it was 114.

As for `CCCNC(C)C(=O)Nc1ccccc1C.Cl` (stereo not drawn) [Prilocaine hydrochloride], the cell viability in experiment [1] is 111; in experiment [4], 120; in experiment [2] it was 98.4; in experiment [3] it was 106.
